Results on 50 compounds are retold here after article PMC6919601, “Identification of Plasmodium dipeptidyl aminopeptidase allosteric inhibitors by high throughput screening” (PLoS ONE, 2019).

Out of some 110,000 compounds screened, about 230 (0.21%) showed an effect of 50% or more. Some of the results follow.
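Further: 30 min substrate incubation versus DMSO and 10 µM JCP410 controls.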

For the test, the target named is DPAP1 (Plasmodium falciparum, UniProt Q8IIJ9). Put plainly: primary screen, percent inhibition; read by cleavage of a fluorogenic dipeptide substrate; higher = more effect of the substance. Also noted: species or system P. falciparum D10 trophozoite lysates; single well.
DPAP1, sequence (Q8IIJ9 whole entry, looked up): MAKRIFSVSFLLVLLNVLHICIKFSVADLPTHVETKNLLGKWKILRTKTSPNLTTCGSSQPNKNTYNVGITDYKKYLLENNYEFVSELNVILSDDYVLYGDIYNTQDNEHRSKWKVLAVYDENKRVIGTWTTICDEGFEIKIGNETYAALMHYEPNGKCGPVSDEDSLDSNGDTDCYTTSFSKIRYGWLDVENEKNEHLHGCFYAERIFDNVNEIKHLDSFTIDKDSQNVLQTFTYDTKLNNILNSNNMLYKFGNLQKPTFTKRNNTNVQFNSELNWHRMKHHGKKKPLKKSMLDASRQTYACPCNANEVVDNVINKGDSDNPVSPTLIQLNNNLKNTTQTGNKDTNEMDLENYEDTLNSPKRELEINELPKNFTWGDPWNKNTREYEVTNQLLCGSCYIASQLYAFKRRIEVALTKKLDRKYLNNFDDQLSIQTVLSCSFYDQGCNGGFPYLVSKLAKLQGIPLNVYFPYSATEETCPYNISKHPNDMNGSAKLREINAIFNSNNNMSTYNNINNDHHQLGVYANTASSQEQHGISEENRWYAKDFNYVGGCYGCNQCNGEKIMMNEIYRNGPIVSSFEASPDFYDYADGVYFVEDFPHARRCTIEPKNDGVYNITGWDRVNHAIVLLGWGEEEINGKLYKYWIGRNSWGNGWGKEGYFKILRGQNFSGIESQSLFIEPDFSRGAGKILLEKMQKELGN
Consider `Cc1ccc(S(=O)(=O)N(CC(=O)Nc2cccnc2)c2ccc(C(C)C)cc2)cc1`, for which the “% Inhibition @ 10 uM” value is given as 0.843%.

As to `O=c1c(Cl)c(NCCCO)cnn1C12CC3CC(CC(C3)C1)C2`, the “% Inhibition @ 10 uM” value was 3.51%.

Take `COc1ccc(C2C(C#N)=C(N)OC3=C2C(=O)CCC3)cc1COc1cccc(Br)c1` (centres unmarked): the “% Inhibition @ 10 uM” value is given as 6.27%.

As to `COc1cccc(S(=O)(=O)NCC(=O)N2CC(C)OC(C)C2)c1` (centres unmarked), the “% Inhibition @ 10 uM” value is on record as 3.56%.

In the case of `CC1CCCC(NC(=O)CCCn2sc3ccccc3c2=O)C1C` (centres unmarked), the “% Inhibition @ 10 uM” value is -8.56%.

Regarding `N#CCNC(=O)CCS(=O)(=O)Cc1ccccc1OC(F)F`, the “% Inhibition @ 10 uM” value is listed as -1.5%.

With `Cc1ccc(S(=O)(=O)Nc2cccc3nsnc23)cc1`, the “% Inhibition @ 10 uM” value is reported as -2.32%.

As to `Cc1cccc(OCC(=O)Nc2ccc(S(=O)(=O)N3CCCCC3C)cc2)c1` (centres unmarked), the “% Inhibition @ 10 uM” value is -1.52%.

With `C=CCNC(=O)c1cc(-c2cccnc2)nc2ccccc12`, the “% Inhibition @ 10 uM” value was 7.18%.

As for `COCc1cc(C)nc(SCC(=O)Nc2c(C)cc(Br)cc2C)c1C#N`, the “% Inhibition @ 10 uM” value is listed as -1.38%.

Consider `CCc1cc(C(=O)O)c(NC(=O)c2ccc(C(C)(C)C)cc2)s1`, for which the “% Inhibition @ 10 uM” value is recorded as 2.76%.

In the case of `Cc1ccc(C)c(NC(=O)CSc2ncnc3[nH]cnc23)c1`, the “% Inhibition @ 10 uM” value amounted to 0.161%.

For the compound `CCc1cc2c(N3CCOCC3)ncnc2s1`, the “% Inhibition @ 10 uM” value is -0.687%.

As for `COc1ccc(NC(=O)/C(=C\c2ccc3c(c2)OCO3)NC(C)=O)cc1`, the “% Inhibition @ 10 uM” value was found to be 4.3%.

As to `CNS(=O)(=O)c1ccc2c(c1)C(=O)c1ccccc1C2=O`, the “% Inhibition @ 10 uM” value is on record as -1.18%.

On to `CCCCN(C)c1nc(C)nc2sc(C)cc12`, for which the “% Inhibition @ 10 uM” value is listed as -2.17%.

In the case of `Cc1cc(C)n(-c2nnnn2-c2ccccc2)n1`, the “% Inhibition @ 10 uM” value was -3.07%.

`Cc1c2cnn(CC(=O)NCc3ccc4c(c3)OCO4)c(=O)c2c(C)n1Cc1ccccc1`: the “% Inhibition @ 10 uM” value was 4.4%.

In the case of `NC(=O)c1nc(-c2cccc(Br)c2)nc2c1nc(O)n2C1CCCCC1`, the “% Inhibition @ 10 uM” value is given as -10%.

With `CC1CCCCN1C(=O)c1cccc(F)c1F` (centres unmarked), the “% Inhibition @ 10 uM” value was found to be 2.18%.

For the compound `CC1CCC(Nc2nc3ccccc3c3nc(-c4cccnc4)nn23)CC1` (centres unmarked), the “% Inhibition @ 10 uM” value is given as -0.692%.

As to `COc1ccc(OCc2cccc(C(=O)N3CCN(c4ccc(OC)cc4)CC3)c2)cc1`, the “% Inhibition @ 10 uM” value is on record as -5.06%.

Turning to `CC(=O)NC1=NN(C(C)=O)C(C)(CCS(=O)(=O)c2ccc(Cl)c(Cl)c2)S1` (centres unmarked), the “% Inhibition @ 10 uM” value is -13%.

Regarding `CCOc1ccc(OCC)c(C(=O)c2nc3c(n2O)CCCC3)c1`, the “% Inhibition @ 10 uM” value amounted to 0.0539%.

As for `CN1CCN(Cc2cccs2)CC1`, the “% Inhibition @ 10 uM” value was determined as 2.33%.

Regarding `CCOc1ccc(C2CC(=O)NC3=C2C(=O)CC(C)(C)C3)cc1Cl` (centres unmarked), the “% Inhibition @ 10 uM” value is recorded as -7.98%.

`O=c1oc2ccc(NS(=O)(=O)c3ccc(Br)cc3)cc2s1`: the “% Inhibition @ 10 uM” value is recorded as 1.76%.

Regarding `CCOC(=O)N1CCC(NC(=O)c2cc3c(C)nccc3nc2O)CC1`, the “% Inhibition @ 10 uM” value came to 2.35%.

As to `O=C(CSc1nnnn1-c1ccc(C(=O)O)cc1)NC1CCCCC1`, the “% Inhibition @ 10 uM” value is recorded as -0.386%.

Consider `Cc1ccc2onc(CNC(=O)N(C)C3CCCCC3)c2c1`, for which the “% Inhibition @ 10 uM” value was -1.97%.

Turning to `CCCCN(CCNC(=O)Nc1cn(CC(C)C)c(=O)c2ccccc12)Cc1ccco1`, the “% Inhibition @ 10 uM” value stood at 1.74%.

On to `Cc1ccc(-n2cc3c(c2-c2ccc(Cl)cc2)c(=O)n(C)c(=O)n3C)cc1`, for which the “% Inhibition @ 10 uM” value was -3.12%.

On to `CCOc1ccc(/N=C2\SC(C(=O)Nc3cccc(OCC)c3)CC(=O)N2C)cc1` (centres unmarked), for which the “% Inhibition @ 10 uM” value was -6.77%.

With `COCc1[nH]nc2c1C(c1ccc(OCc3ccccc3)c(OC)c1)C(C#N)=C(N)O2` (centres unmarked), the “% Inhibition @ 10 uM” value was found to be 6.24%.

With `COc1ccc(-c2csc(/C(C#N)=C\Nc3cccc(F)c3)n2)cc1`, the “% Inhibition @ 10 uM” value is given as -1.44%.

As to `COCCNC(=O)c1cc2c(-c3cccc(OC)c3)nn(C)c2s1`, the “% Inhibition @ 10 uM” value is 6.08%.

As for `COc1cc2c(cc1OC)C(c1ccc(Cl)cc1)N(C(C)=O)CC2` (centres unmarked), the “% Inhibition @ 10 uM” value came out at 0.605%.

Take `Cc1ccnc(SC2CC(=O)N(c3ccc4ccccc4c3)C2=O)n1` (centres unmarked): the “% Inhibition @ 10 uM” value was -1.64%.

For the compound `CCOC(=O)N1CCN(Cc2cc(=O)oc3cc(C)ccc23)CC1`, the “% Inhibition @ 10 uM” value was -3.49%.

As for `CCc1nn(-c2cc(Oc3ccccc3)nc(C)n2)c(N)c1C(N)=O`, the “% Inhibition @ 10 uM” value was found to be 3.56%.

Consider `Cc1ccc(S(=O)(=O)N(CC(=O)NC2CC3CCC2C3)c2ccc(Br)cc2)cc1` (centres unmarked), for which the “% Inhibition @ 10 uM” value was found to be 4.25%.

For the compound `CC1=NC(C(F)(F)F)(C(F)(F)F)C2=C(CC(C)(C)CC2=O)N1Cc1ccco1`, the “% Inhibition @ 10 uM” value was found to be 3.54%.

Take `N#CCNC(=O)C(Cc1c(Cl)cccc1Cl)NC(=O)OCc1ccccc1` (centres unmarked): the “% Inhibition @ 10 uM” value came out at 1.42%.

Consider `Cc1c(NC(=O)c2ccccc2)cccc1[N+](=O)[O-]`, for which the “% Inhibition @ 10 uM” value is -4.04%.

As to `O=S(=O)(c1ccccc1)N1CCN(Cc2ccccc2)CC1`, the “% Inhibition @ 10 uM” value was -1.07%.

`Cc1ccc(CNC(=O)C2CCC(CNS(=O)(=O)c3cccs3)CC2)cc1` (centres unmarked): the “% Inhibition @ 10 uM” value is listed as -0.668%.

For `Cc1cc(OCC(=O)Nc2nccs2)c(C(C)C)cc1Br`, the “% Inhibition @ 10 uM” value is given as 1.94%.

As to `CCCCCn1c(CN2CCN(Cc3ccccc3)CC2)nc2c1c(=O)n(C)c(=O)n2C`, the “% Inhibition @ 10 uM” value is reported as 0.317%.

As for `CN1CCCCC/C1=N\CCCn1cnc2c1c(=O)[nH]c(=O)n2C`, the “% Inhibition @ 10 uM” value is reported as -5.28%.

With `CSc1ccc(C2c3c(-c4ccccc4O)n[nH]c3C(=O)N2Cc2ccco2)cc1` (centres unmarked), the “% Inhibition @ 10 uM” value was -3.12%.
